Data from PMC4336329 (PLoS ONE, 2015).
Among all 310,000 compounds or so, about 14,000 (4.5%) showed an effect of 50% or more. The effect is printed as a negative number. The list shows a part of the results.

What follows are molecules tested against human ether-à-go-go-related gene (hERG) potassium channel (human, UniProt Q12809) (assay: primary screen, population patch clamp on CHO cells stably expressing hERG).
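Also: peak tail current of the secondary pulse compared with the same well before compound.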

human ether-à-go-go-related gene (hERG) potassium channel, sequence (Q12809 whole entry, looked up): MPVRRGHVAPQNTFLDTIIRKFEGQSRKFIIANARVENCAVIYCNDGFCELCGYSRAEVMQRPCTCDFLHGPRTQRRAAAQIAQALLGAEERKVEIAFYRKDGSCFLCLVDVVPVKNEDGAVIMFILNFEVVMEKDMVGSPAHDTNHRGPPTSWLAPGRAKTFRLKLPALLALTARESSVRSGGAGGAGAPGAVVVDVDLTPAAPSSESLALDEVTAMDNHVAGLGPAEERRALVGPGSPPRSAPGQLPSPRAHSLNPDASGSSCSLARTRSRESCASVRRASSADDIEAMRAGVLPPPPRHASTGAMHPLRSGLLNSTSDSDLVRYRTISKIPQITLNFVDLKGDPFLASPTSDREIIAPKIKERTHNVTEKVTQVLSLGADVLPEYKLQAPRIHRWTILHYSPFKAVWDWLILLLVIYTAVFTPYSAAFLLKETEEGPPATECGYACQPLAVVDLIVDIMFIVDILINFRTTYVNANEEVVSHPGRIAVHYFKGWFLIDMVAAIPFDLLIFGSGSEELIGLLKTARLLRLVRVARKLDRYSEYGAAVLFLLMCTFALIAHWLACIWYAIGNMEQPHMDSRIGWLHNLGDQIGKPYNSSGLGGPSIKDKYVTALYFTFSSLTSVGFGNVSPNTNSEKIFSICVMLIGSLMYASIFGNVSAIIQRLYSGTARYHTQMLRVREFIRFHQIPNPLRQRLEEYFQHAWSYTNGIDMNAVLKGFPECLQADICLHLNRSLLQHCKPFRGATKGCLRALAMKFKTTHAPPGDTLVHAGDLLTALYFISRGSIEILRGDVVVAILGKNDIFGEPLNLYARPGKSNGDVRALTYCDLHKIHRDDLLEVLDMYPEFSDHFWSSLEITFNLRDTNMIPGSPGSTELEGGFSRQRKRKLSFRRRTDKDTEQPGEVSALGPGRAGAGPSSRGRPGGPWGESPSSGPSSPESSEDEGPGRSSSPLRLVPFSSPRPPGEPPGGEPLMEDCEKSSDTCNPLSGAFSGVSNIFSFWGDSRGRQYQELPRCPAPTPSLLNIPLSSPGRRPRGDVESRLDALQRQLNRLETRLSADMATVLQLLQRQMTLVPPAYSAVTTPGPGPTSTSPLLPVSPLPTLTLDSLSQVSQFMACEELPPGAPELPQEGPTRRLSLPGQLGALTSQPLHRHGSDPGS

| Compound | hERG current change (%, negative = inhibition) at 10uM |
| --- | --- |
| COc1ccc(C(=O)Nc2cc(C)nc3ccccc23)cc1OC | -2.07% |
| C#Cc1ccc([C@H]2C=C(C(=O)N3CCN(Cc4ccc5c(c4)OCO5)CC3)O[C@@H](OCC)[C@@H]2CCCO)cc1 | -11.9% |
| Cc1ccc(S(=O)(=O)NCCc2ccncc2)cc1[N+](=O)[O-] | 15.8% |
| COc1ccc2nc(Nc3ccccc3)sc2c1 | 18.8% |
| CCN1C(=O)C(CC(=O)Nc2ccc(OC)cc2)N(Cc2cccs2)C1=S (stereo not drawn) | -7.33% |
| Fc1ccccc1-c1nc2c(s1)CCc1onc(-c3ccc(Br)cc3)c1-2 | 11.4% |
| CCOc1ccc(C(=O)OCCN(C)C)cc1.Cl | -10.3% |
| O=C(Nc1cccc(Cl)c1)c1cccc(Oc2ccc([N+](=O)[O-])cc2Cl)c1 | 13.1% |
| Cl.c1ccc2c(c1)oc1c(N3CCOCC3)ncnc12 | 9.53% |
| Cc1c(C)n(Cc2ccccc2)c2ccc(C(=O)O)cc12 | 2.05% |
| O=C(COc1ncnc2ccccc12)NCCc1ccccc1 | 10.2% |
| COc1ccc(Cc2nnc(SCC(=O)Nc3ccc(C)cc3)n(N)c2=O)cc1 | 0.762% |
| Cc1cc(=O)n2c(n1)NC(Nc1cccc(C)c1C)=NC2c1ccc(F)cc1 (stereo not drawn) | 7.5% |
| O=C(C1CCCN1S(=O)(=O)c1cccc2cccnc12)N1CCN(c2ccccc2)CC1 (stereo not drawn) | -45% |
| CCOc1cc(CNc2cccc3[nH]c(C)nc23)ccc1OC.Cl | 18.6% |
| CCN(CC)CCCNC(=O)Cn1nc(-c2ccccc2)ccc1=O | -24.4% |
| CC1C(=O)N(c2ccc(S(=O)(=O)N(C)C)cc2)C1(/C=C/c1ccccc1)C(=O)NC1CCCC1 (stereo not drawn) | 23.6% |
| NC(=O)NCc1ccccc1F | 10.9% |
| CCc1cc(-c2n[nH]c(C)c2-c2nc3ccccc3n2C)c(O)c(CN2CCN(C)CC2)c1O | -35.1% |
| CC(C)C[C@H]1CNC(=O)C(=O)N1C[C@H](C)NC(=O)Cc1ccccc1 | 3.39% |
| Fc1ccccc1NC(=S)N1CCN(Cc2ccccc2)CC1 | -2.71% |
| COc1ccc(/C=N/NC(=O)CCn2c3ccccc3c3ccccc32)cc1OC | 4.4% |

| Compound | hERG current change (%, negative = inhibition) at 10uM |
| --- | --- |
| COC(=O)c1cc2ccccc2oc1=O | 6.33% |
| Cc1nnc(SCCCOc2ccccc2)nc1C | -2.1% |
| Cc1cc(O)c(C(C)C)cc1NC(=O)c1ccccc1Cl | -6.98% |
| COc1ccc(S(=O)(=O)N2CCCCCC2)cc1C(=O)N(C)Cc1ccc(C(C)(C)C)cc1 | -2.16% |
| O=C(NCCCN1CCCC1)c1ccc(CS(=O)(=O)c2ccc(Cl)cc2)o1 | -6.15% |
| COc1ccc(C)cc1S(=O)(=O)N1CCCCC1 | -0.147% |
| CCCN(CC(=O)Nc1ccccc1OC)C(=O)CCC(=O)c1ccc(F)cc1 | -13.3% |
| COc1ccc(-c2nn(C)c3sc(C(=O)NCCN(C)C)cc23)cc1OC | 15.4% |
| CN(C(=O)CC(=O)Nc1ccc(Cl)c(Cl)c1)c1ccccc1 | -22.2% |
| CCn1cc(C(=O)NC(C)C)c(=O)c2cc(F)c(N3CCN(C(=O)c4ccco4)CC3)cc21 | -34.6% |
| Cc1ccc(S(=O)(=O)N(C)c2ccc(C)c([N+](=O)[O-])c2)cc1 | -15.7% |
| CCCNC(=O)N1[C@H]2CC[C@@H]1C(C(=O)OC)=C(c1ccc(Cl)c(C(F)(F)F)c1)C2 | -11.4% |
| COc1cc(OC)cc(-c2sc3ccc(OC)cc3c2C#CCCO)c1 | 10.5% |
| O=C1Nc2ccccc2C(O)(C(=O)NCc2ccco2)N1c1ccc(Cl)c(Cl)c1 (stereo not drawn) | -15.3% |
| CCOc1ccc2oc(C(=O)NCC(C)(C)CN(C)C)c(C)c2c1.Cl | -54.5% |
| COc1ccccc1NC(=O)c1ccc2c(c1)C(=O)N(Cc1ccco1)C2=O | 9.96% |
| Cc1ccccc1NC(=O)Cc1nc(COC(=O)c2cc(Cl)ccc2O)cs1 | 15.3% |
| COc1cc(/C=C(/C#N)C(=O)NCc2ccccc2)cc(OC)c1OC | -24% |
| COc1cccc(OC)c1OCCN1CCN(C(=O)c2ccco2)CC1.Cl | -16.2% |
| COc1cc(NC(=O)CC2NCCNC2=O)cc(OC)c1 (stereo not drawn) | 19.2% |
| O=C(Nc1cc(=O)[nH]c2ncnn12)c1ccc(Cl)cc1Cl | -9.89% |
| CSc1nnc2c3ccccc3n(Cc3ccccc3)c2n1 | 25.8% |

| Compound | hERG current change (%, negative = inhibition) at 10uM |
| --- | --- |
| Cc1ccc(NC(=S)NCCN2CCOCC2)cc1C | -5.31% |
| Cc1ccc(C)c(NC(=O)COC(=O)c2ccc3c(c2)OCO3)c1 | 22.8% |
| CN(C)c1cccc2c(S(=O)(=O)N3CCOCC3)cccc12 | -5.82% |
| CCCn1nc(NS(=O)(=O)c2cccc3nonc23)c2cc3cccc(C)c3nc21 | -10.7% |
| O=C(CN1C(=O)S/C(=C/c2cccnc2)C1=O)N1CCOCC1 | 8.12% |
| CCc1sc(C(=O)Nc2ncccc2O)cc1C | -2.28% |
| N#CCCCn1c(=O)oc2ccccc21 | 3.97% |
| CC1CC(C)CN(C(=O)CSc2nnc(CSc3ncccn3)n2C)C1 (stereo not drawn) | 3.88% |
| Cc1cc(NC(=O)CSCC(=O)N2CCN(c3cccc(C)c3C)CC2)no1 | -27.7% |
| CCC(Oc1ccc(C)cc1)C(=O)Nc1ccc2c(c1)n(C)c(=O)n2C (stereo not drawn) | 5.6% |
| CC1CC(C)CN(C(=O)c2ccc(S(=O)(=O)N3CCCCC3)cc2)C1 (stereo not drawn) | 9.86% |
| COc1ccccc1COc1ccc2c(C)c(CCC(=O)O)c(=O)oc2c1C | 18.1% |
| COc1ccc(CC(=O)N/N=C/c2cccnc2)cc1OC | 11.7% |
| COc1cc(NS(=O)(=O)c2ccc(N/C=C(\C=O)c3nc4ccccc4o3)cc2)nc(OC)n1 | 8.85% |
| O=C(NCc1ccc(F)cc1)C(c1ccco1)N(C(=O)c1csnn1)C1CC1 (stereo not drawn) | 0.323% |
| COCCCN1C(=O)c2[nH]nc(-c3cc(C)cc(C)c3O)c2C1c1ccc(O)c(OC)c1 (stereo not drawn) | -10.3% |
| O=C(NCc1ccccc1)c1ccc(S(=O)(=O)NCc2ccco2)cc1 | -11.3% |
| N#Cc1c(OCC(=O)c2ccccc2)nc2c(c1-c1ccco1)CCc1ccccc1-2 | -1.51% |
| CCN(CC)C(=O)CSc1nc2cc3c(cc2c(=O)n1CCCC(=O)NCCc1ccc(OC)c(OC)c1)OCO3 | -8.7% |
| CC(OC(=O)c1ccc2ncsc2c1)C(=O)N(C)C1CCCCC1 (stereo not drawn) | 5.34% |
| Cc1ccc(C(=O)NCCc2cc3ccc(C)c(C)c3[nH]c2=O)cc1[N+](=O)[O-] | -15.6% |
| COC(=O)c1sccc1NC(=O)c1ccc(C)cc1 | 18.9% |

| Compound | hERG current change (%, negative = inhibition) at 10uM |
| --- | --- |
| CCC(Oc1ccccc1)C(=O)Nc1cc(C(F)(F)F)ccc1N1CCOCC1 (stereo not drawn) | 13.4% |
| Cc1[nH]ccc(=O)c1OCC(=O)O | 17.8% |
| CCOc1ccc(S(=O)(=O)N2CCC(C(=O)OC(C)C(=O)NC3CCCCC3C)CC2)cc1 (stereo not drawn) | -14.6% |
| Cc1[nH]c2ccccc2c1CN1CCN(c2ccccn2)CC1 | -52.7% |
| O=C1CCCC(O)=C1C=Nc1ccc(O)cc1 | 14.6% |
| COc1ccc2c(c1)cc1c(=O)n(CC(=O)NCCCN3CCOCC3)nc(C)n12 | 8.95% |
| Cl.N=c1ccn(Cc2ccccc2Cl)cc1 | 13.1% |
| O=[N+]([O-])c1ccc(OCc2cnc(Cl)s2)c([N+](=O)[O-])c1 | -25.7% |
| Cc1ccnc2nc(C(=O)Nc3nnc(CC(C)C)s3)nn12 | 3.42% |
| O=C(O)c1ccccc1Nc1ccccc1 | 21.7% |
| Cc1ccc(S(=O)(=O)ON=C2CCN(S(=O)(=O)c3ccccc3)CC2)cc1 | 19% |
| Nc1nc(SCC(=O)NCc2ccc(F)cc2)[nH]c(=O)c1NC(=O)c1ccc(Cl)cc1 | 5.38% |
| COC(=O)C1=C(NC(=O)c2ccc(Br)cc2)CCS1 | 27.4% |
| Cc1ccc(NC(=O)CNc2ccc(N3CCOCC3)cc2)cc1S(=O)(=O)N(C)C | -30.8% |
| Cc1ccc(N2CC(C(=O)N3CCC4(CC3)CC(=O)c3ccccc3O4)CC2=O)cc1C (stereo not drawn) | -71.3% |
| S=c1[nH]nc(-c2cc(-c3ccccc3)n[nH]2)n1/N=C/c1cccs1 | 24.2% |
| COc1cccc(OCC(=O)NNC(=O)c2ccc3ccccc3c2)c1 | 27.4% |
| CCN(CC)c1ccc(/C=N/NC(=O)C2CC2)cc1 | -14.2% |
| Cc1ccc(S(=O)(=O)NC(=O)N(CCC#N)Cc2ccccc2)cc1 | 13.5% |
| O=C1C2C(c3cccc(/C=C/c4ccccc4)c3)CC=CC2C(c2ccc(C(F)(F)F)cc2)N1Cc1ccccc1 (stereo not drawn) | 8.53% |
| O=C(NCCCn1ccnc1)c1cc2nc(-c3ccc(Br)cc3)cc(C(F)(F)F)n2n1 | -62.8% |
